Patent US5208223A, “Phosphocholine derivative inhibitors of phospholipase A2” (American Cyanamid Company, priority 1992, dated 1993)
Where “and” joins values, the source holds several entries; their conditions need not be identical. Identical values can stand only once. Counter-ions that a name gives are not always drawn. The name of at least one read-out is uncertain.

Columns and labels:
Assay type in all cases: biochemical
porcine pancreatic PLA2 [1] = biological target: T1, porcine pancreatic PLA2 (Sus scrofa, UniProt P00592); assay: MHPLA2 assay: in vitro porcine pancreatic phospholipase A2, mixed micelle design, [s]=10 μm; conditions: subs. con. 10
T1 construct: purchased Sigma
T1 sequence (P00592 23-146): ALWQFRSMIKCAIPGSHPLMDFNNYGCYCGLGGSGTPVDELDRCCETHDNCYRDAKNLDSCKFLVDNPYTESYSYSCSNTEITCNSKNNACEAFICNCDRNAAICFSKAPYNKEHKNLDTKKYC
Method: (§1) Phospholipase A2 activity was measured by a radiochemical assay in which labeled synthetic phosphatidylcholine substrate is converted by porcine pancreatic PLA2 to free radiolabeled arachidonate and lyso PC. Radiolabeled arachidonate is extracted from the reaction mixture and separated from unreacted substrate by column chromatography or TLC. Radioactivity (cpm) in samples is quantitated by liquid scintillation counting. Specific details are as follows:
(§2) Labeled substrate(1-stearyl-2-^3 H-arachidonylphosphatidylcholine; Amersham, sp. act. 84 (uCi/mmole, 0.025 to 0.2 uCi/assay tube and unlabeled substrates (Avanti), in sufficient quantity to give 20,000 cpm to 50,000 cpm and 10 μM to 1,000 μM final concentration/assay tube are dried under a stream of nitrogen. The PLA2 and mPLA2 assays utilized a […] substrate concentration. The mHPLA2 and HPLA2 assays (vida infra) utilized a 10 μM substrate concentration and the SmPLA2 assay utilized a substrate concentration ranging from 100 to 1000 μm. The substrate is then redissolved in 0.1M tris-HCl buffer, pH 9.0 containing 10 mM CaCl2 and 10 mM Na taurocholate detergent. The mixture is sonicated in a Kontes Sonifier to yield a homogeneous dispersion. The "mixed" micellar substrate is clear. An aliquot is reserved for a cpm count (total substrate). The total reaction volume is 500 μL; siliconized glassware or plasticware is used throughout. Enzyme (Sigma, sp. act.>690 U/mg protein and preferably 900 U/mg protein) is diluted 1:750 or 1:1000 in 0.1M tris-HCl buffer, pH 9.0 (without Ca^++ and detergent). […]
(§3) Labeled arachidonate extracted with CHCl3 /MeOH is separated on silica gel G TLC plates (Analtech). […] A 20 μL sample is counted in 10 ml of Beckman Redi-solv HP and spotted on silica gel G plates. […] Spots corresponding to arachidonate and phospholipid are scraped and counted in 10 ml Beckman Redi-Solv HP scintillation fluid.
(§4) Samples are extracted with hexane/ether and the upper organic phase recovered. […] The 6 ml sample is counted in 10 ml of Beckman Redi-Solv HP scintillation fluid. […]

porcine pancreatic PLA2 [2] = biological target: T1, porcine pancreatic PLA2; assay: SMPLA2 assay: in vitro porcine pancreatic phospholipase A2, mixed micelle design, substrate 100 to 1000 μm; conditions: dose 25 μ/ml; subs. con. 100
Method: as §1
as §2, with “dispersion.” for “dispersion. The "mixed" micellar substrate is clear. An aliquot is reserved for a cpm count (total substrate). The total reaction volume is 500 μL; siliconized glassware or plasticware is used throughout. Enzyme (Sigma, sp. act.>690 U/mg protein and preferably 900 U/mg protein) is diluted 1:750 or 1:1000 in 0.1M tris-HCl buffer, pH 9.0 (without Ca^++ and detergent).”
(§5) Labeled arachidonate extracted with CHCl3 /MeOH is separated on silica gel G TLC plates (Analtech). […] A 20 μL sample is counted in 10 ml of Beckman Redi-solv HP and spotted on silica gel G plates. […]

porcine pancreatic PLA2 [3] = biological target: T1, porcine pancreatic PLA2; assay: PLA2 assay: in vitro porcine pancreatic phospholipase A2, preincubation of drug+enzyme, substrate 2 nM; conditions: dose 10 μ/ml, subs. con. 2
Method: as §1
Labeled substrate(1-stearyl-2-^3 H-arachidonylphosphatidylcholine; Amersham, sp. act. 84 (uCi/mmole, 0.025 to 0.2 uCi/assay tube and unlabeled substrates (Avanti), in sufficient quantity to give 20,000 cpm to 50,000 cpm and 10 μM to 1,000 μM final concentration/assay tube are dried under a stream of nitrogen. The PLA2 and mPLA2 assays utilized a […] substrate concentration. The mHPLA2 and HPLA2 assays (vida infra) utilized a 10 μM substrate concentration and the SmPLA2 assay utilized a substrate concentration ranging from 100 to 1000 μm. The substrate is then redissolved in 0.1M tris-HCl buffer, pH 9.0 containing 10 mM CaCl2 and 10 mM Na taurocholate detergent. The mixture is sonicated in a Kontes Sonifier to yield a homogeneous dispersion. The "mixed" micellar substrate is clear. An aliquot is reserved for a cpm count (total substrate). The total reaction volume is 500 μL; siliconized glassware or plasticware is used throughout. Enzyme (Sigma, sp. act.>690 U/mg protein and preferably 900 U/mg protein) is diluted 1:750 or 1:1000 in 0.1M tris-HCl buffer, pH 9.0 (without Ca^++ and detergent). Enzyme dilution depends on substrate concentration and required enzyme concentration.
The substrate in buffer is kept on ice until the reaction is started. The reaction is started by adding 10 μL of diluted enzyme solution to 490 μL of micellar substrate solution. Samples are incubated in a 37° C. water bath for 15 minutes with gentle mixing. The reaction is terminated by the addition of 100 μL of 1M fresh trichloroacetic acid (TCA) solution and chilling the tubes on ice for 30 minutes.
Samples (600 μL) are extracted with 3 ml CHCl3 /MeOH (2:1) for thin layer chromatography or in hexane/ether (9:1) for column chromatography. The phases are separated by gentle centrifugation at 700 rpm×5'. The organic phase is recovered.
as §3, §4

porcine pancreatic PLA2 [4] = biological target: T1, porcine pancreatic PLA2; assay: MPLA2 assay: in vitro porcine pancreatic phospholipase A2, mixed micelle design, substrate 2 nM; conditions: dose 25 μ/ml, subs. con. 2
Method: as §1
as §2, with “dispersion.” for “dispersion. The "mixed" micellar substrate is clear. An aliquot is reserved for a cpm count (total substrate). The total reaction volume is 500 μL; siliconized glassware or plasticware is used throughout. Enzyme (Sigma, sp. act.>690 U/mg protein and preferably 900 U/mg protein) is diluted 1:750 or 1:1000 in 0.1M tris-HCl buffer, pH 9.0 (without Ca^++ and detergent).”
as §5

CCCCCCCCCCCCCCCCOCC(COP(=O)([O-])OCC[N+](C)(C)C)CC(N)CCCCCCCCCCCCCCCC (stereo not drawn) [7-(2-Aminooctadecyl)-4-hydroxy-N,N,N-trimethyl-3,5,9-trioxa-4-phosphapentacosanaminium, hydroxide, inner salt, 4-oxide]
% Inh. (porcine pancreatic PLA2 [1]; dose 10 μ/ml): 93%
% Inh. (porcine pancreatic PLA2 [2]): 59%

C=C(CCCCCCCCCCCCCCCC)CC(COCCCCCCCCCCCCCCCC)COP(=O)([O-])OCC[N+](C)(C)C (stereo not drawn) [4-Hydroxy-N,N,N-trimethyl-7-(2-methyleneoctadecyl)-3,5,9-trioxa-4-phosphaoentacosan-1-aminium, hydroxide, inner salt, 4-oxide]
% Inh. (porcine pancreatic PLA2 [3]): 65%

CCCCCCCCCCCCCCCCOCC(COP(=O)([O-])OCC[N+](C)(C)C)OC(=O)CBr (stereo not drawn) [3,5,9-Trioxa-4-phosphapentacosan-1-aminium, 7-[(bromoacetyl)oxy]-4-hydroxy-N,N,N-trimethyl-, hydroxide, inner salt, 4-oxide]
% Inh. (porcine pancreatic PLA2 [1]; dose 10 μ/ml): 24% and 34%
% Inh. (porcine pancreatic PLA2 [1]; dose 25 μ/ml): 29% and 54% and 43% and 44%

CCCCCCCCCCCCCCCCOCC(COP(=O)([O-])OCC[N+](C)(C)C)CB(O)O (stereo not drawn) [7-(Boronomethyl)-4-hydroxy-N,N,N-trimethyl-3,5,9-trioxa-4-phosphapentacosan-1-aminium, hydroxide, inner salt, 4-oxide]
% Inh. (porcine pancreatic PLA2 [4]): 33% and 55%

CCCCCCCCCCCCCCCCOCC(COP(=O)([O-])OCC[N+](C)(C)C)CC(C)(O)CCCCCCCCCCCCCCCC (stereo not drawn) [4-Hydroxy-7-(2-hydroxy-2-methyloctadecyl)-N,N,N-trimethyl-3,5,9-trioxa-4-phosphapentacosan-1-aminium, hydroxide, inner salt, 4-oxide]
% Inh. (porcine pancreatic PLA2 [3]): 62%

CCCCCCCCCCCCCCCCOCC(COP(=O)([O-])OCC[N+](C)(C)C)CC(=O)CCCCCCCCCCCCCCCC (stereo not drawn) [4-Hydroxy-N,N,N-trimethyl-7-(2-oxooctadecyl)-3,5,9-trioxa-4-phosphapentacosan-1-aminium, hydroxide inner salt, 4 oxide]
% Inh. (porcine pancreatic PLA2 [3]): 61%

CCCCCCCCCCCCCCCCOCC(CC=O)COP(=O)([O-])OCC[N+](C)(C)C (stereo not drawn) [4-Hydroxy-N,N,N-trimethyl-7-(2-oxoethyl)-3,5,9-trioxa-4-phosphapentacosan-1-aminium, hydroxide, inner salt, 4-oxide]
% Inh. (porcine pancreatic PLA2 [3]): 39%
